Source: patent publication US6570002 (Johns Hopkins, dated 2003)

Target: T1, Aven (human, UniProt Q9NQS1 1-362)
T1 construct: also called Bif-1
T1 sequence: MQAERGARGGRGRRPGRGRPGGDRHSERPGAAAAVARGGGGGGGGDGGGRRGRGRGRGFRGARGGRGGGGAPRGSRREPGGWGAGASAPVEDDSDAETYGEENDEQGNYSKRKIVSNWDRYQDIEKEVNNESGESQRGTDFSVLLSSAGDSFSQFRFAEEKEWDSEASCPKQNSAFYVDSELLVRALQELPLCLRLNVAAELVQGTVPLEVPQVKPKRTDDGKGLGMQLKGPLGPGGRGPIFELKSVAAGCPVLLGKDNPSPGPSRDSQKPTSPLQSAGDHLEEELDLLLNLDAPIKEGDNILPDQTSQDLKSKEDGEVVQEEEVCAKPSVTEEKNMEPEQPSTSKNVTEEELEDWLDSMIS
Assay: yeast two-hybrid screen

B1: Bcl-xL (other)
chain: not shown
notes: also called human Bcl-xL; hBcl-xL
B1: binds.
